Source: the supplement of paper PMC11417369
± gives the standard deviation of the averaged measurements. The list shows a part of the results.

tested on: PfAP2-EXP AP2 domain (GST-tagged); assay: gcPBM binding intensity (ln(normalized median fluorescence intensity)); higher = stronger DNA binding
Procedure, shortened: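 Binding of GST-tagged P. falciparum DNA-binding domains, expressed in E. coli and used at about 25 μg on average, was carried out for 1 h in 1× PBS containing 1% milk, 0.2 mg/ml BSA, 0.5% salmon testes DNA and 0.03% Triton X-100. The target was an Agilent 4 × 180k array of primer-extended double-stranded 36-bp intergenic genomic probes plus negative controls, read with Alexa488 anti-GST antibody at 488 nm. Binding intensity is the highest Masliner-normalised natural-log median intensity across replicate spots of either probe orientation.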

| Sequence | gcPBM binding intensity (ln) |
| --- | --- |
| ATAAAGTCTATATTATGTACATATAATATAAATATT [XGTACX_site6703] | 8.38 ± 0.31 |
| CAAAAAAAAATCTGTAGTACTTATTAATATTGCTGT [XGTACX_site4767] | 8.38 ± 0.26 |
| TATTGTCTTGTATATGCATGTAGACCAAATATGTAA [TGCATGCA_site9] | 8.72 ± 0.33 |
| AAATCAAATTTTTAGAGTACTTAAGTTTTCTATATA [XGTACX_site7827] | 8.27 ± 0.57 |
| ATCACAAAAAAGTTCATACACACAACCTATTTATAT [CACACA_site2888] | 8.52 ± 0.36 |
| TAATATATTAATATATGTACATATTTATATATCTAC [XGTACX_site7117] | 8.44 ± 0.28 |
| TCCCCATATGTTTTGTGTACATATATATTTTTTTGT [XGTACX_site75] | 8.95 ± 0.38 |
| TCATATAAGTTTAGTAGTACTAAAAGTTAGAGAGAA [XGTACX_site3430] | 8.73 ± 0.33 |
| AAATAAGAGCGTAGCACACACGCATTTTATAAATGG [CACACA_site4571] | 8.68 ± 0.37 |
| AAAACAAAAGAATTCACACATATATATATATATATA [CACACA_site4777] | 10.1 ± 0.36 |
| ATATATGGAAAGAGTAGTACTATTATAGGGGTGTTA [XGTACX_site6785] | 8.95 ± 0.64 |
| TGATTATTATAATTTAGTACATAATATTTTATATAA [XGTACX_site6125] | 7.96 ± 0.33 |
| CAAGGAACCAGACACACACACATAAATGTATATATA [CACACA_site752] | 8.53 ± 0.49 |
| AAAATTAACGAGTGCACACATATTTAGATAAAATAC [CACACA_site2936] | 8.8 ± 0.21 |
| TTAAACGTACATAATACACACACATGTAGACATATA [CACACA_site8635] | 8.66 ± 0.33 |
| AAAATTAAACATACATCACACATGCATTATATTATG [CACACA_site5517] | 8.65 ± 0.51 |
| ATACTTTATTAATATTGTACAAAATAAGAAAAAAAA [XGTACX_site310] | 8.54 ± 0.38 |
| ACATAAAAATTATGCACACTTAATAAAGCGAAATGT [CACACA_site3183] | 8.78 ± 0.4 |
| CACAACAGGGTTGAGGTGCGTAAAAATAGTAGAATA [GTGCAC_site9523] | 8.62 ± 0.35 |
| TATATATATATGTGTACACAAAAAATATTATATTAT [CACACA_site5505] | 9.9 ± 0.16 |
| TTTTTAATCCTTTGCGCATGTAAAATTATATATTTT [TGCATGCA_site306] | 9.01 ± 0.39 |
| ACATAATTATTATGCACACATATTTTTATGTATTTA [CACACA_site698] | 8.52 ± 0.085 |
| ATTCTATTTTTAAGTACACACATATATATATATATA [CACACA_site3658] | 10.2 ± 0.42 |

| Sequence | gcPBM binding intensity (ln) |
| --- | --- |
| AAACTAACTCTAACATGTACATATATATATATATAT [XGTACX_site6949] | 10.1 ± 0.29 |
| TAATGGTGTTCATGTGGTACACTTTATAAATTGGCA [XGTACX_site729] | 8.55 ± 0.3 |
| TTGAAAATTCTTAAGGCACACACATATATAATATAT [CACACA_site8088] | 8.6 ± 0.24 |
| GCTTATTTTAATTCTTGTACTTATTTATATACAAAT [XGTACX_site2099] | 8.91 ± 0.23 |
| TTTTGAAGTAATACATGTACTTAAATTACTAAAAAA [XGTACX_site1955] | 8.39 ± 0.4 |
| ACTTTGCGTTAAAAGAGTACATAATATTTTTTTTTT [XGTACX_site7533] | 8.34 ± 0.092 |
| TATATATATAACATATGTACATATATTTATAAATAC [XGTACX_site5484] | 8.885 ± 0.078 |
| AATAATTTAATACATACACACGTATATCTTTTTTTT [CACACA_site8632] | 8.46 ± 0.39 |
| TATATAAATATACACCCACACACATATATATATATA [CACACA_site9247] | 10.2 ± 0.26 |
| TATAAAAAAAAATGTGGTACATATTTCCATTTTCCA [XGTACX_site4571] | 8.11 ± 0.23 |
| TATATTCCACTCATTGATTTTCTCTTCTCACAAAAA [CACACA_negctrl_site1016] | 8.66 ± 0.49 |
| ATCGTAGTATAATATGAACACACACCCACCCACAAA [CACACA_site8616] | 9.46 ± 0.67 |
| TCTTCTTAACCAACTATGAAAAGGAAAAATATAACA [GTGCAC_negctrl_site565] | 8.49 ± 0.46 |
| GAAACTATGTAATGCACACCAAAATAAAATTATTAA [CACACA_site1904] | 8.53 ± 0.31 |
| CATGAATTTTTTTAATGTACATTCACATCATAAAAA [XGTACX_site7475] | 8.69 ± 0.29 |
| ATATATTATATATATAGTACGTATATAAATTTAATT [XGTACX_site5041] | 8.53 ± 0.18 |
| TAAATCCGCACGCACACACACATATTAATAAAAAAA [CACACA_site7800] | 8.61 ± 0.36 |
| TTATTTTTATTATAAATTATAAAATATAAATAAATA [GTGCAC_negctrl_site616] | 7.83 ± 0.42 |
| ATTATAAAAAAGAAACGTACATATTTATTGTTTTTT [XGTACX_site2161] | 8.26 ± 0.26 |
| TATAATAATACTTATTGTACTATTAGTTTAATTCAT [XGTACX_site6638] | 8.15 ± 0.39 |
| ATCTTTCAATAATTCACACATATATATATATATATA [CACACA_site4598] | 10.2 ± 0.28 |
| ATATATATATATGTACACATATATGTGTTTGTTTTT [GTGCAC_negctrl_site5] | 10 ± 0.38 |
| CTATTACAAAGAAATTGTACATATATATATAAAAAC [XGTACX_site8800] | 8.73 ± 0.35 |

| Sequence | gcPBM binding intensity (ln) |
| --- | --- |
| AGCCACAATACGGAAACACACAAGTTATTTTATCAT [CACACA_site2724] | 8.46 ± 0.47 |
| AATGAAGACTTTTTTACACACTTCATATCTTATAGA [CACACA_site7046] | 8.71 ± 0.55 |
| AATATTTTTAATTAATGTACATATTTATTATATAAA [XGTACX_site5112] | 8.52 ± 0.33 |
| AAATTTTTTCCGATTTGTACTTATATTTCTTTATTA [XGTACX_site1762] | 8.71 ± 0.5 |
| TTTTAACGTAATTCAAATGAGCAGAATTTTTTAAAA [CACACA_negctrl_site1800] | 8.15 ± 0.54 |
| TTTTTATGAATTCTTTTGTTAATAATAATATGTTGT [TGCATGCA_negctrl_site198] | 8.39 ± 0.38 |
| AAAAAAAAGAAAAACACACACATATTTATTTATAAC [CACACA_site6600] | 8.6 ± 0.49 |
| TAAATAAATTTATGTACACACACAAATAAATACATA [CACACA_site5107] | 8.63 ± 0.27 |
| TATATATTAAATTATAGTACACATTATATATAATTA [XGTACX_site4841] | 8.38 ± 0.25 |
| TATATATATATATATAGTACACATATCACATAAATG [XGTACX_site6379] | 10.2 ± 0.23 |
| ATAATATATGTATGTATGCACTTTTATTATTTTTTT | 8.45 ± 0.36 |
| ATAATATATATATTTTGTACACATGAAAAGGAGGAT [XGTACX_site5034] | 9.21 ± 0.47 |
| AATAAACATTATTTTCGTATTCCAATTCTTTTTTTT [XGTACX_negctrl_site374] | 8.09 ± 0.18 |
| TTGATAAAATCACTGGTGCATGTAGATATATAATAT | 8.84 ± 0.13 |
| TTTTTTTAAAACAAAAAAAAAAAAAAAAAAAAAAAA [TGCATGCA_negctrl_site418] | 7.96 ± 0.39 |
| TTCTTTTTTATTTATACATGCAATAAAAAATTGATT [TGCATGCA_site730] | 8.81 ± 0.27 |
| AAGAGAGAGAAATATGCACACATAAGGGAAATAAAT [CACACA_site8300] | 8.61 ± 0.13 |
| TATATATGTATGTATGTACACACAAAAAATGGAATA [CACACA_site9235] | 8.96 ± 0.42 |
| TTATTATTAGAAAAAAGTACACATATAAAATGTTAC [XGTACX_site6426] | 8.29 ± 0.38 |
| GGATACATATGTAAAAGTACACATGAATATATACAT [XGTACX_site6469] | 8.61 ± 0.31 |
| GTAAAATTAAAAATAACACACAAAAAAAAAAAAAAA [CACACA_site800] | 8.18 ± 0.44 |
| AAAAAAAAAAGAAAAAGTACATACATACATATATAT [XGTACX_site6405] | 8.46 ± 0.36 |
| TTTTAATTAGTACAAACACACATATACAGACAAAAA [CACACA_site2563] | 8.98 ± 0.45 |

| Sequence | gcPBM binding intensity (ln) |
| --- | --- |
| AGACGATAAATCATTCATTCATTTACCATCCAAAAA [CACACA_negctrl_site802] | 8.43 ± 0.47 |
| TAATATAGAAAATGCATACACACTTTATATATATAT [CACACA_site911] | 9.66 ± 0.26 |
| TACTATTATTATTGCACACTTATTATCCCTCGGATA [CACACA_site162] | 8.91 ± 0.092 |
| TGATCATAGAAACACACACACAAAAAAAAAAAAAAA [CACACA_site4008] | 7.98 ± 0.49 |
| AATATATATTAATACACACACACATATATATATATA [CACACA_site3786] | 10.1 ± 0.47 |
| AAAATTTTTTTTGGCGCACACTAATAATAAAATATA [CACACA_site470] | 8.6 ± 0.35 |
| AAATATTATTGACGATGTACTTCTATTCATAAGTAT [XGTACX_site3964] | 8.46 ± 0.5 |
| GAATAATATGGACATACACACATATACATACCTATA [CACACA_site7075] | 8.79 ± 0.28 |
| CTTTTTAATGAATACACACACACACCGATATATATA [CACACA_site5296] | 8.79 ± 0.52 |
| TAAAACTTATACAAATGTACAAATATATATATATAT [XGTACX_site4661] | 10 ± 0.47 |
| TATAACAAAAAAAAATAAAAAATAAAACTATATATA [CACACA_negctrl_site504] | 8.31 ± 0.45 |
| ACCTAAAATAACTACACACACATAAAAAAAAAAAAA [CACACA_site2529] | 8.27 ± 0.62 |
| TTTTTTTTTTATTCTTCACACATTTCCAATAAAAAA [CACACA_site5601] | 8.83 ± 0.48 |
| GTTATTATATATATGTGTACTTAAAAATTTTATGTC [XGTACX_site6084] | 8.93 ± 0.25 |
| AAAAAAAAAAAAAAAACACACAGAAATATATATATA [CACACA_site4611] | 9.54 ± 0.21 |
| AAAGAAGGGAAACACACACACACACCCACAAAAAAA [CACACA_site3766] | 8.68 ± 0.49 |
| TGTATATATATTTATGCATGCTGTGTGTATTCTTTT [TGCATGCA_site74] | 9.52 ± 0.4 |
| TTTATATATTTTAGGAGTACATTAAATTATACCTTA [XGTACX_site5600] | 8.18 ± 0.24 |
| AATAAAAAAAAAATAAATTTAATAATAATAATAAAA [CACACA_negctrl_site569] | 8.23 ± 0.33 |
| ATTAATATTTAGACTTGTACATATATAATATATGTC [XGTACX_site3766] | 8.47 ± 0.35 |
